Test system: Human cytomegalovirus (HCMV)
Assay: HCMV antiviral assay, HCMV DNA quantified by DNA hybridization in MRC-5 cells
Format: cell-based
Conditions: Table 1 data

CCCCCCCCCCCCCCCCOCCCOP1(=O)COC(Cn2ccc(N)nc2=O)CO1 (stereo not shown) [HDP-cCDV, 1-O-hexadecylpropanediol-3-cyclic CDV]
times more active than CDV or cyclic CDV: > 900 times

— patent publication US10071110B2, “Phosphonate compounds” (priority 1999, dated 2018)
